This is one part of the list. Further columns of the screen follow, without active or inactive calls. Compounds called inactive in the main read-out are mostly missing here.

The experiment in a line: beta-lactam sensitization of Mtb H37Rv, H37Rv (AID 434955).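 Further: growth measured after seven days incubation then overnight dye step; 0% = bacteria only wells and 100% = bacteria with antibiotic.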 As to conditions: M. tuberculosis H37Rv growth with meropenem, percent inhibition; measured here: primary screen without meropenem; at 25 µM.
In the case of `CN(C(=O)CN1C(=O)c2ccccc2S1(=O)=O)c1ccccc1C(=O)O`, the inhibition (usually the drop in the measured response relative to a control, in per cent) was -0.55%.

Consider `COC(=O)c1sccc1S(=O)(=O)NC(C)c1cnn(-c2ccc(OC)cc2)c1C` (configuration not stated), for which the inhibition is -2.3%.

On to `CCCCCCc1nc(C(N)=O)c2[nH]c(=O)n(-c3ccc(OC)cc3OC)c2n1`, for which the inhibition was determined as 7.81%.

For `N#CC1=C(N)Oc2cc(N)ccc2C1c1ccc(F)cc1` (configuration not stated), the inhibition worked out at 2.71%.

For the molecule `Cc1nc(CNS(=O)(=O)c2ccc(Br)cc2)cs1`, the inhibition stood at 9.87%.

As for `O=C(Nc1ccnn1C1CCN(Cc2cccc(O)c2)CC1)C1CCCC1`, the inhibition turned out to be 6.74%.

For the molecule `CCCN1CCc2c(sc(NC(=O)Cc3ccc(F)cc3)c2C(N)=O)C1`, the inhibition worked out at 2.49%.

Turning to `COc1ccc(C(C)C)cc1S(=O)(=O)n1cnc(C)c1`, the inhibition is -0.76%.

With `COc1ccccc1NC(=O)Nc1nn(C)c2cccc(OC)c12`, the inhibition was 28%.

For `Cc1ccc(/C=N/n2c(C3CCCCC3)n[nH]c2=S)cc1`, the inhibition stood at 6.44%.

In the case of `CCOc1ccccc1OCC(=O)N/N=C(\C)Cc1ccc(OC)cc1`, the inhibition was -7.86%.

For the molecule `CCc1ccc2nc(N(CCN(C)C)C(=O)c3ccc4ccccc4c3)sc2c1`, the inhibition came to 7.05%.

Regarding `O=C1C(Cl)=C(N2CCCCC2)C(=O)N1c1ccccc1`, the inhibition was 45.1%.

For `O=C(CCN1C(=O)/C(=C\c2ccccc2)SC1=S)NCCCN1CCOCC1`, the inhibition stood at 0.37%.

With `CCc1cc(N2CCOCC2)cc2c1[nH]c1ccccc12`, the inhibition is -2.95%.

As to `O=S(=O)(c1cccc2nonc12)N1CCCCC1`, the inhibition turned out to be 1.49%.

As to `Cc1cc(C(=O)NC2CCCc3c2cnn3-c2cccc(C)c2C)no1` (configuration not stated), the inhibition amounted to 1.65%.

Regarding `O=C(Nc1cccc(F)c1)Nc1ccnn1C1CCN(C(=O)c2cscn2)CC1`, the inhibition turned out to be 2.71%.

Regarding `CCCCNC(=O)c1cc([N+](=O)[O-])[nH]n1`, the inhibition turned out to be 4.31%.

Regarding `CCOC(=O)c1sc(=S)n(CC)c1NC(=O)CC`, the inhibition was -6.8%.

In the case of `COc1cccc(Oc2nc(-c3ccccc3O)nc3ccccc23)c1`, the inhibition worked out at 15.4%.

For `CCCCN1c2cc(C)c(O)cc2C(C(=O)OCC)C1C` (configuration not stated), the inhibition was 5.87%.

On to `N#Cc1c(NC(=O)CSc2ncn[nH]2)sc2c1CCCCC2`, for which the inhibition was -3.01%.

For the molecule `CSc1nc(SCC(=O)NCc2ccco2)c2c3c(sc2n1)COC(C)(C)C3`, the inhibition is -6.62%.

Take `CCOC(=O)c1cnn(-c2ncnc3sc4c(c23)CCC4)c1N`: the inhibition worked out at 54.4%.

Consider `COc1cccc(NC(=O)Nc2cc(C)ccc2F)c1`, for which the inhibition came to 1.98%.

`Cc1c(NC(=S)NC(=O)c2cc3ccccc3o2)cccc1C(=O)O`: the inhibition was -1.18%.

Turning to `COc1nc(N(C#N)CC(N)=O)nc(N2CCCC2)n1`, the inhibition was found to be 3.73%.

For `COc1ccc(-c2cc(C(F)F)nc(-n3nc(C)cc3C)n2)cc1`, the inhibition came to 46.9%.

Regarding `CCOC(=O)C1CCCN(c2ccc(NC(=O)c3snc4c(=O)[nH]cnc34)cc2)C1` (configuration not stated), the inhibition worked out at 42.9%.

As for `COc1ccccc1C(=O)Nc1nnc(SCC(=O)NCc2ccco2)s1`, the inhibition came out at 2.46%.

On to `CC(C)OCc1c(C(=O)Nc2nccs2)oc2ccccc12`, for which the inhibition was determined as 46.3%.

For the origin of these results see PubChem BioAssay AID434955 (Southern Research Specialized Biocontainment Screening …, 2010).
